# ± gives the standard deviation of the averaged measurements. This is one part of the list.
# Tested on: PfAP2-G AP2 domain (GST-tagged)
# Assay: gcPBM binding intensity (ln(normalized median fluorescence intensity)); higher = stronger DNA binding
# In short: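 Binding of GST-tagged P. falciparum DNA-binding domains, expressed in E. coli and used at about 25 μg on average, was carried out for 1 h in 1× PBS containing 1% milk, 0.2 mg/ml BSA, 0.5% salmon testes DNA and 0.03% Triton X-100. The target was an Agilent 4 × 180k array of primer-extended double-stranded 36-bp intergenic genomic probes plus negative controls, read with Alexa488 anti-GST antibody at 488 nm. Binding intensity is the highest Masliner-normalised natural-log median intensity across replicate spots of either probe orientation.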
row,Sequence,gcPBM binding intensity (ln)
1,AAAATAATAAATAAATGTACATATATATATATATAT [XGTACX_site3078],10.9 ± 0.24
2,ATTATTATTATATTTTGTACATATGTAACAATATAT [XGTACX_site5780],10.9 ± 0.45
3,TCTAACATATAATATTCACACACATATATATATTAT [CACACA_site8236],10 ± 0.16
4,TGGTTTCAATAATTAATAAAATATATTATTGTGAAA [CACACA_negctrl_site442],9.625 ± 0.049
5,ATAATATATTTATAATGTACAAACCATTTGTATTAA [XGTACX_site4370],10.6 ± 0.36
6,AAAAAATGACTTAATATGAGCATATATTATGTTGTT [CACACA_negctrl_site1609],9.675 ± 0.049
7,AAAATATAAAAATGAAGTACAAAAAAAAAAAAAAAA [XGTACX_site8132],11.3 ± 1.1
8,GTTATACACATCAACACACACATACAACGTGGTGTA [CACACA_site6677],10.03 ± 0.035
9,TAAATATGTGTATGTAGTACATAGTGTTTTTTTTTT [XGTACX_site3748],11.4 ± 0.76
10,ATATTATGAATTGTCACACATATATTTAAAAATGTA [CACACA_site4852],10.01 ± 0.049
11,TGCATATTACTTTTTCACATAAAAATGATCCGATTA [GTGCAC_negctrl_site526],9.94 ± 0.057
12,TTTTTTTTTTTTTTTTTTTTACCCCTTTTTCAAAAA [CACACA_negctrl_site1524],9.88 ± 0.45
13,AAAACATTGTTTATGTGTACATAATTATATTTACAA [XGTACX_site6926],11.4 ± 0.86
14,CATTAAAATTGAGAGATGCACTTTTTAAGACCTTGT,10.3 ± 0.35
15,AAAAAAAATTAAATAAATAAATATACACATATATAT [GTGCAC_negctrl_site394],9.47 ± 0.26
16,CAAAAAACAACAGATCGTACAAAATATTATATATAT [XGTACX_site2285],10.7 ± 0.49
17,TATCCATATTTGTTCACACACACACCGATTTATATA [CACACA_site5888],10.22 ± 0.049
18,TTGAAAAATGAGCACACACACAAATACATACATATT [CACACA_site3231],10.3 ± 0.2
19,TTAACTCTGGAGAAAAGTACATAGTATCTGGTAACA [XGTACX_site4941],11.2 ± 0.99
20,TTTTAACAAAAAAAAAGAAAAGAAAAGAAAATAATA [XGTACX_negctrl_site530],9.73 ± 0.071
21,TATATTTATATCCACTTCGTTTAACGCACAGATATA [CACACA_negctrl_site954],10.2 ± 0.35
22,AAGTTTTTTTTTAACACACACATAATAAAATAAATA [CACACA_site446],10.1 ± 0.16
23,ATTATAAAAATATATTGTACACAAAAATGTTTATAT [XGTACX_site5066],11.3 ± 0.85

row,Sequence,gcPBM binding intensity (ln)
1,TGAGATATAAAAATATGTACTTATGTATAAATATTT [XGTACX_site7746],11.1 ± 0.66
2,CCAAATTTATTTTGTAGTACTCCGTATAGATCAACA [XGTACX_site7945],11.6 ± 0.96
3,ATATACTATATTTTAACACACAAAAAAAAAAAATAT [CACACA_site1091],9.985 ± 0.035
4,TCTTATTCAAACGTAAAACGAAGAAGAAAAAAAAAA [CACACA_negctrl_site149],9.93 ± 0.17
5,AAATTATATATATTACGTACATAGAACTTTACAGAA [XGTACX_site6646],11.4 ± 0.97
6,ATGTTACACCGACACACACACATAAAAAAACAAAAA [CACACA_site5750],10.3 ± 0.4
7,ATAAATAAATAAATAAATAAATATACATATACATAT [CACACA_negctrl_site205],9.805 ± 0.092
8,AAGAAATAAAAAGAATGTACACAATATGTATTATAA [XGTACX_site4733],11.5 ± 0.69
9,TGGACAATTGTTTATTGTACTTAAATTTTATGTTCT [XGTACX_site8974],11.3 ± 0.95
10,AGCATTTTAAGTTATACACACATTTTGAATCTATAT [CACACA_site7599],9.96 ± 0.071
11,AAAAAAAATTCGTGTGTGCGCATATATAATATATAA,10.31 ± 0.092
12,AAGCATACATCAAGCACACACACACCCACAGAGACA [CACACA_site4362],10.2 ± 0.26
13,TACATACATATATTATGTACATATTTTATTTTTATT [XGTACX_site1642],11.2 ± 0.7
14,TTTCTTTTAATAATTAAATATTTATTTATGATTATA [TGCATGCA_negctrl_site30],9.46 ± 0.028
15,TATGTAGTTTTAAAGTGTACTTATATATATTAATTG [XGTACX_site378],11.4 ± 0.87
16,ATAAATATATATATCACACATATATAATTATATATA [CACACA_site4787],10 ± 0.38
17,TACTGTGATAGCACCACACACGCAAAAGTGGGTATA [CACACA_site4749],10.2 ± 0.2
18,TTTAAATCGTTAAAAACACACAAAAAAAATCAATTA [CACACA_site2519],9.97 ± 0.18
19,ATTGCAAGTTACTTGTGTACTTATAAGATTAAAAGA [XGTACX_site7696],11.5 ± 1
20,TAATAATACCCAAGCACACACACACCCATATATATA [CACACA_site4831],10.1 ± 0.13
21,AATATAAATAAAAACACACACAATGGTACATATATA [CACACA_site3671],10.9 ± 0.46
22,TCTATACCAGAAAAGGGTACATATTTTGGATTGAAC [XGTACX_site8402],11.1 ± 0.61
23,ATTATGCACCAACACACACACACACTCCTAAAAAAT [CACACA_site8822],10.4 ± 0.38

row,Sequence,gcPBM binding intensity (ln)
1,CGAATATATTCTAGACGTACTATATAATATATATAT [XGTACX_site4953],11.1 ± 0.69
2,GATAATTACGGACACACACACACACGCACAACTAAA [CACACA_site7254],11.5 ± 0.87
3,ACTATCATTCATAGGTGTACCTAAATATATATATAT [XGTACX_site1696],11.5 ± 1.1
4,TCTTTTTCTTCTTATGTGCACATCAATTATGCTTCT,10.5 ± 0.31
5,ATAATAAAAATATATACATGCATTATTATATATATA [TGCATGCA_site799],9.635 ± 0.049
6,CAACAATTTCGTCATACACACATTCAGAATATAGAT [CACACA_site7166],10.24 ± 0.042
7,ATAATATTTTTTAATTGTACGTTCCATTTTTTTAAA [XGTACX_site1227],11.1 ± 0.64
8,TTATTTCGAAGAAAATGTACATATATAAATATATAC [XGTACX_site3308],11.1 ± 0.62
9,ATATGTATATATGTATGTACGTACAAATTGTTGTAA [XGTACX_site8832],11.7 ± 0.8
10,TGTATAAAGATATATACACACATATTTATTTATATA [CACACA_site6493],9.745 ± 0.007
11,TACAAAATAACTAGCACACATATGTATAAACCTATA [CACACA_site3718],10.06 ± 0.049
12,AGTAGCATATTCTATTGTACATATATATATATATAT [XGTACX_site2980],11 ± 0.73
13,ATTAAAAACGGGTGTACACATATATAAATATATATA [CACACA_site4539],11.7 ± 0.89
14,GTTATATTTTTTTTTTGTACATAATATTGTATTGAC [XGTACX_site6338],11.1 ± 0.69
15,ACCTGAAGAGTCAAACGTACAAATATTATAAAATGA [XGTACX_site3188],11 ± 0.64
16,TTAATACATTAAATATGTACTTATATATCTCAACTA [XGTACX_site3997],11.2 ± 0.67
17,ACATGTCAAACATTTGCACACAAAAAAATAAAAATT [CACACA_site691],10.2 ± 0.25
18,TCATCCGTTTTAAGAAGTACATATTTGAACATATAA [XGTACX_site8040],11.3 ± 0.75
19,CATAGGATTATACTTTTGGAATATTATTAAATATGT [XGTACX_negctrl_site75],10.1 ± 0.18
20,TTTATTTTTTAATGTTGTACAATGTTGTTTAATCAA [XGTACX_site6489],11.2 ± 0.88
21,TTTTTTTCTTTTCAAACACACAATTGGTATATATTA [CACACA_site3320],10.1 ± 0.28
22,TAGAACAAATAAAACACACACATATATATATATATG [CACACA_site2768],9.99 ± 0.16
23,TATATACAAAAATGCACACGAAAAGTAATATATATA [CACACA_site4173],10.1 ± 0.33

row,Sequence,gcPBM binding intensity (ln)
1,TATATAAAAATCAATTGTACTTTTTTTTTTTTTTTT [XGTACX_site7327],11.4 ± 0.79
2,ATATATAAAATTATATGTACATATATAATATATATA [XGTACX_site529],11.2 ± 0.82
3,TATATATATATGTGCACACATATATAATATGTATAA [CACACA_site715],10.6 ± 0.57
4,AAATAACACATATATACACACATATAACTATAATAT [CACACA_site7298],9.905 ± 0.064
5,TGTAAATATTTATTCACACATAATCAATTAGAAAAA [CACACA_site5944],10 ± 0.13
6,ATCACAAAATGGAATGTTCTATGATATATATGTATA [XGTACX_negctrl_site460],9.58 ± 0.13
7,AAAAAAAAAAAAAACACACACACAATAGTATATAAA [CACACA_site957],10 ± 0.26
8,TTGTTACTGTTTTGGTGTACAAAAAAAAAAAATATA [XGTACX_site5762],11.4 ± 0.98
9,TACTTACTTACTTACTCACACACATATACAAAGAAA [CACACA_site3348],10.6 ± 0.44
10,TATATATATTTTTATGCACACACAAAGAAAATTTTC [CACACA_site8931],10.2 ± 0.18
11,AATACAGATAATACAACACACAAGTAATATAAACCT [CACACA_site5900],9.975 ± 0.021
12,TATAAATACAGATACACACACACACCGATATATATA [CACACA_site5271],10.1 ± 0.21
13,AATATATAAATCTATTGTACATAAAGAGGATAATAA [XGTACX_site1022],11 ± 0.64
14,GATGATTATATATATACGCACACTTTTTTTTTTTTT [CACACA_site2652],10.11 ± 0.092
15,CTCATTCTTTTTTGATGTACTTTTTTTTTTTAAGTT [XGTACX_site2875],11.6 ± 0.81
16,ATATATATATATATATGTACATATTTATTTATTTAT [XGTACX_site5161],11.1 ± 0.58
17,AGCACAGACTAATAAACACACACATATATATATATA [CACACA_site8021],10.1 ± 0.33
18,ATAGTATACGGACACACACACACACCGATATATATA [CACACA_site5032],11.3 ± 0.76
19,AAAAGAGAAACATTTACACACAAATATAGATATATG [CACACA_site1027],9.98 ± 0.014
20,TTGTATAATTTAACAAGTACAAAATAAATTTGTATA [XGTACX_site5505],11 ± 0.73
